In the supplement of paper PMC3334620:
The full ranking holds about 33,000 sequences; the median of “E-score (-0.5 to 0.5)” is about -0.043, and the highest 2% start at about 0.37. This is one part of the list.

These sequences were tested against T1, Upc2 (UniProt Q12151) (assay: PBM E-score (8-mer binding enrichment) (E-score (-0.5 to 0.5)); higher = stronger / more preferred TF binding; most listed sequences are background and not binding sites). Details: protein concentration: 200 nM; construct: GST-full length.
T1 sequence: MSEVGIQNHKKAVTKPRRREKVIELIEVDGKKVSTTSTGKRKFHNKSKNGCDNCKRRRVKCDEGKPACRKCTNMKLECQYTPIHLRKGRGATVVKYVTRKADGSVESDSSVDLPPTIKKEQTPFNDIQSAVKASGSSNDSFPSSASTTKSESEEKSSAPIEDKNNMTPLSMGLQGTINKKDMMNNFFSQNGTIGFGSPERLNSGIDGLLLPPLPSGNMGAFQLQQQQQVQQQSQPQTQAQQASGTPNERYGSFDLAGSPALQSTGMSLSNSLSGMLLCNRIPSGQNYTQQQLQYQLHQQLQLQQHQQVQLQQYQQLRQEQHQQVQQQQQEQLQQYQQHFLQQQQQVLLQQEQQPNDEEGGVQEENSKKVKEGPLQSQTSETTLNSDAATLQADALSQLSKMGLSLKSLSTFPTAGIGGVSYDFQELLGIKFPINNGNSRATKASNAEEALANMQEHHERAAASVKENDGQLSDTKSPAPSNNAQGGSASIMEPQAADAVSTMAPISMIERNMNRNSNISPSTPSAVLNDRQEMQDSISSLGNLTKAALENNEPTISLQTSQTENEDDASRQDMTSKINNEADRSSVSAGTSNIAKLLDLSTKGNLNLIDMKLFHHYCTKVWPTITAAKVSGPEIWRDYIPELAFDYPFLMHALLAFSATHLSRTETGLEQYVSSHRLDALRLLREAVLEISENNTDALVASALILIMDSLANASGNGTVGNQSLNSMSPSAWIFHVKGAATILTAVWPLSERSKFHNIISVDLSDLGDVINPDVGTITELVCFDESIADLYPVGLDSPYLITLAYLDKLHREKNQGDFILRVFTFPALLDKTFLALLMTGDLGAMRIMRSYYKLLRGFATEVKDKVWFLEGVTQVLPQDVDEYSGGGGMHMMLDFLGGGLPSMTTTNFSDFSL
Method: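 Universal 'all 10-mer' protein binding microarrays (Agilent AMADID 015681) probed with GST-tagged S. cerevisiae TFs (full-length or DBD) made by in vitro transcription/translation (PURExpress), about 100-200 nM. Bound TF was detected with fluorescent anti-GST. Each ungapped 8-mer (which stands for itself and its reverse complement) is scored by the PBM enrichment score (E-score), a modified Wilcoxon-Mann-Whitney statistic from -0.5 to +0.5, computed with the Universal PBM Analysis Suite. Scale: above 0.35 generally sequence-specific binding.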

Sequence | PBM E-score
GCTAAAGA | 0.0895
TCTGATAA | -0.188
TATCCAAA | 0.178
AAGGACAC | -0.0987
ACTGTCGC | -0.0465
CACGCGGC | -0.19
CAATACTC | 0.0235
ATGAGCTC | -0.125
CGATGGGC | 0.0724
CTCTGTTC | -0.218
CTAGAAAA | -0.0104
GGATAATA | -0.0041
AAAGATTC | 0.0374
AAGGTGAC | -0.26
GTCGCAAC | 0.119
CTAACATA | 0.0276
CACAAAGA | -0.104
GGCTTCGA | -0.0382
ACGTAGAT | 0.113
GATTCCAC | -0.0954
AGGACCAC | -0.158
GTCCTTTA | -0.138
GGCGGGAC | -0.0696
ACCTCGTC | 0.0626
CGCGCCAG | -0.0872

Sequence | PBM E-score
GTGCCTCA | -0.316
GGTGGAAA | -0.128
GCGCGTGA | 0.076
AAAACCAC | -0.0422
GGGTACAC | -0.0159
CTCCATAC | 0.151
ACACTAGG | -0.152
GACGCTTA | 0.124
GGCACGGA | -0.208
CCTCTCTA | -0.35
CTCTTGTA | -0.114
GCTCCAGC | 0.0527
AGTCGTAA | 0.379
GCCACGGC | -0.0747
GGGAGCAA | -0.11
GAAGCTCC | -0.0734
CCCAAGCA | -0.206
CATACAGC | -0.184
GGGGTGCA | -0.117
CGACTGCG | 0.00321
ACCATATA | 0.27
CGGATAAG | 0.122
CGTGGCCC | -0.137
AATCTCGA | 0.0517
AAGAGCGA | 0.138

Sequence | PBM E-score
GCAATCCA | -0.151
GAAACTCA | 0.0109
GTCATGAC | 0.0371
ACCAAATG | -0.135
ACCCTAGT | -0.279
CGAAACAA | 0.188
CGGGAGTA | -0.028
GCAACAGC | -0.191
GGGCCCAC | 0.125
ACCGCTCA | 0.0434
ATTTCGAC | -0.0393
AATTTGAT | -0.0842
CGTCGCTC | 0.256
TTCAGCAA | -0.0506
ACAACCGC | 0.127
TATCGGCA | -0.11
CCCCAATC | -0.371
ACTCGGAA | 0.0882
ATGTGATG | -0.159
TCACCGGA | -0.142
GGAGAAAC | 0.0297
CGCGGCGC | -0.135
ACATAGAT | -0.164
CAAGAGAC | -0.194
ATCGCTGA | 0.205

Sequence | PBM E-score
CCCCACAC | -0.161
CCCCTTTC | -0.0709
TAGCTACA | 0.00914
TAGCGAAA | 0.18
ACAGCTGT | -0.131
TCGGCCGA | -0.194
ATCAAAGC | -0.0926
AGACACGC | 0.104
AATGGTAT | -0.0952
GAGACGCC | -0.0116
GTAACTCA | -0.0406
TCCAGACA | -0.0333
GACTTGTA | -0.0478
AGCCCAGG | -0.379
CCTCCTCA | -0.168
AACTGAGT | -0.127
AAAGTGCA | -0.0392
ACCCATAC | 0.145
ACTGCCCT | -0.145
AAAAAGGC | -0.0109
CAAACGGA | 0.318
ACACTGCG | 0.0863
CTACCTCC | 0.109
AAGGAGGG | -0.164
CGACGGCC | 0.15

Sequence | PBM E-score
ACGAGCCG | 0.371
ACAAGCTA | -0.00666
ACTAGGTC | 0.0604
GATCGCCC | 0.0445
CGATTTAC | 0.209
AATGTTTA | -0.011
ATTACCCA | -0.113
TCTTATCA | 0.0884
ATGCAGCA | -0.0711
CAACGGTG | 0.0103
CACCGCGA | -0.0507
ACGTCAAT | 0.0234
AAAATTTC | -0.00276
ACGGGGTG | 0.155
TGAATTAA | 0.0996
AGATTGGG | -0.164
CCTTCACC | -0.241
AGGAATTC | -0.135
AAAACGCT | -0.0211
CAACTATA | 0.143
ACCGTCCA | -0.0792
CCTCAGTC | -0.169
GATGAAAA | 0.0354
CTTCAACA | -0.039
AAATGCTC | -0.0466

Sequence | PBM E-score
CTTCTTAA | 0.0092
AGGGCGCG | -0.0167
AGCAATTC | -0.029
TGGGCTAA | -0.0401
AACGGTCG | 0.28
CCTCGGCG | 0.114
AGGAGCCC | -0.0823
AAGTCGAC | -0.00442
AAAACACA | -0.0496
AAAAAAAG | -0.0152
ATTCCATA | 0.0936
AAACTCAG | -0.173
CGCCCGAA | 0.0251
CCACCATC | -0.293
ACCAGGCT | -0.172
GGTTGGAA | -0.0677
TGCCCACA | -0.226
GCCCCGTA | 0.305
GGCCACTA | -0.226
CAACCCAA | -0.0577
TCCTACAA | -0.00717
AGTCGCAG | -0.0754
GAAAGTTA | 0.0498
CATGAGCG | 0.0815
GCCCTAGA | -0.0739

Sequence | PBM E-score
GACCTATC | -0.124
AATAAACT | -0.0754
AAGCACGC | -0.0422
ATGAGTAG | -0.127
ACGTTGTC | -0.0308
CGAGACAG | 0.0945
CAAGAAAC | -0.0795
ATGCGGGC | -0.0472
CGGTGTTA | 0.101
ACATCAGT | -0.141
GTCCTGCA | -0.262
ACATTTCG | 0.0532
ATGGTCCG | 0.0316
CCCCCCGA | -0.231
CGTACAAC | 0.439
ATGCACGC | -0.103
ATCAATAA | 0.0472
CGCTGCGC | 0.0138
AAGTCGAA | -0.16
CGTCAAAC | 0.242
AACCGCTA | -0.0239
AACCAATT | -0.179
